Laboratory results taken from the supplement of paper PMC3724861.
Some of the results follow.

test system: T1, Caupolican (Caup) homeodomain DNA-binding domain; assay: PBM E-score (8-mer, recovered from the published 9-mer minima) (E-score (dimensionless, -0.5 to 0.5)); Drosophila protein; higher = stronger relative binding preference, active = 0.31 or more
T1 sequence: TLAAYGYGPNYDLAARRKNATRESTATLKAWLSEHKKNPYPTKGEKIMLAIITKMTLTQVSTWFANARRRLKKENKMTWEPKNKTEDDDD
How it was run: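 Caup's homeodomain DNA-binding domain (residues 214-303) was produced by in vitro transcription and translation and applied at 100 nM to custom-designed protein binding microarrays. Each value is an enrichment score giving relative binding preference for a short DNA word; higher means stronger. Published 9-mer scores were the minimum of their two constituent 8-mer scores, and the 8-mer values were recovered from those minima. A cutoff of 0.31 marks candidate binding sequences.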

Row | Sequence | PBM E-score
1 | GAAGGTGA | inactive: -0.0377
2 | AAAACTTC | inactive: -0.0128
3 | GGGATGAA | inactive: -0.11
4 | AGTGCTTC | inactive: -0.0183
5 | CCTAACTC | inactive: -0.0422
6 | CAAACGTC | inactive: -0.0552
7 | CTCTGCCA | inactive: -0.224
8 | GCATACCC | inactive: -0.0402
9 | CTCGGACA | inactive: 0.086
10 | ATATTAAC | inactive: 0.133
11 | ATAACAAC | active: 0.346
12 | GCTCGTTA | inactive: 0.104
13 | CTAATTGA | inactive: -0.00415
14 | CCACAATA | inactive: -0.00725
15 | AATGGCTC | inactive: -0.0437
16 | CGTAGGCA | inactive: -0.114
17 | ATTGTCTA | inactive: 0.194
18 | ATCTGATA | inactive: 0.0604
19 | GCAATCGC | inactive: -0.111
20 | ATACCTCC | inactive: -0.0147
21 | ACGCTCCA | inactive: -0.166
22 | CCCGCCCG | inactive: -0.177
23 | ACCTCCCC | inactive: -0.169
24 | GCGGTAAA | inactive: 0.0541

Row | Sequence | PBM E-score
25 | ACAGGATA | inactive: 0.197
26 | TCATACCA | inactive: 0.0931
27 | AGATTGAA | inactive: 0.0897
28 | TCTCCGAA | inactive: -0.0458
29 | AACATACC | inactive: 0.303
30 | CAGACTTA | inactive: 0.0309
31 | CCTGACCA | inactive: -0.00358
32 | GCTACAGA | inactive: 0.0623
33 | CGCGGTAG | inactive: -0.115
34 | GAACTGCA | inactive: -0.0108
35 | GATATCAA | inactive: 0.122
36 | CATGGGAG | inactive: -0.1
37 | CAAGACTA | inactive: 0.107
38 | GACTCCAA | inactive: -0.055
39 | TGTGGCAA | inactive: -0.00688
40 | ACACTGAA | inactive: 0.198
41 | GCGACAAA | inactive: 0.0908
42 | ATCTCAAA | inactive: 0.0536
43 | AAATAGAG | inactive: 0.0477
44 | CCAAGCTA | inactive: -0.0659
45 | CGGGAACA | inactive: 0.176
46 | GAAGAGTA | inactive: 0.0189
47 | AACGACAG | inactive: 0.164
48 | GACGCCAA | inactive: -0.148

Row | Sequence | PBM E-score
49 | TAGCCGGA | inactive: -0.154
50 | GGGCAAAC | inactive: -0.079
51 | CCCAGAAA | inactive: -0.0281
52 | AGTTGTGG | inactive: 0.0797
53 | ACCAAGCC | inactive: -0.0761
54 | AAGGCTAC | inactive: -0.0541
55 | CGTTCTGC | inactive: -0.104
56 | ACGTGTGG | inactive: 0.0393
57 | CTCGGCAC | inactive: -0.192
58 | CTACACCA | inactive: 0.212
59 | ATTCACCA | inactive: -0.00503
60 | CTTGTACA | active: 0.44
61 | ACACGTCT | inactive: 0.203
62 | AAACGAGC | inactive: 0.0966
63 | CCAACATC | inactive: 0.113
64 | CCTGAGCC | inactive: -0.224
65 | ACATGGTC | inactive: 0.285
66 | AAACCGCT | inactive: -0.0895
67 | AATCTAAG | inactive: 0.0545
68 | TCTTGGCA | inactive: -0.0494
69 | AGTTTAAT | inactive: 0.11
70 | CGCCTGGC | inactive: -0.214
71 | ACAAGACG | inactive: 0.257
72 | GAGCACCA | inactive: -0.0535

Row | Sequence | PBM E-score
73 | CACACGTG | inactive: 0.148
74 | CCGCCAAG | inactive: -0.177
75 | CATCCGTA | inactive: 0.0622
76 | CAAGACTG | inactive: 0.144
77 | GATCAAGC | inactive: 0.0472
78 | AGGGGTGG | inactive: -0.154
79 | GGAAAGCA | inactive: 0.014
80 | CTGGTGAC | inactive: -0.112
81 | CAGATTGA | inactive: 0.0257
82 | GGTGGAGA | inactive: -0.232
83 | CAATAGTG | inactive: 0.019
84 | ATCTAGTG | inactive: 0.0489
85 | AGTAAGGG | inactive: -0.0567
86 | TGTCGAAA | inactive: 0.222
87 | CGAACTGC | inactive: -0.0462
88 | CGACTTAA | ≥ 0.0731
89 | GGCAATAA | inactive: 0.0723
90 | CTCCTGCC | inactive: -0.112
91 | AGAAACTG | inactive: 0.0017
92 | GATGCGAA | inactive: 0.0257
93 | ATGTATCC | active: 0.332
94 | GCACAATA | inactive: 0.0168
95 | ATTGGAAG | inactive: -0.0555
96 | ACCCTGCC | inactive: -0.244

Row | Sequence | PBM E-score
97 | GGCTCGCA | inactive: -0.153
98 | AGGAATAA | ≥ 0.104
99 | ACAAATCT | inactive: 0.204
100 | ATACCATG | inactive: 0.174
101 | ACCTAAGA | inactive: 0.00757
102 | CCGATTTA | inactive: -0.0491
103 | CTCATTGA | inactive: 0.0245
104 | AAGACCAC | inactive: -0.0559
105 | AACTCGAT | inactive: 0.12
106 | CAGAGTGA | inactive: 0.0283
107 | ACACTCCG | inactive: 0.0179
108 | AGGATGGC | inactive: -0.13
109 | ATAAGATA | inactive: 0.144
110 | CAGTGTGC | inactive: -0.114
111 | GTAGGCGA | inactive: -0.00406
112 | AAACCGTT | inactive: 0.0731
113 | AGCAGCTG | inactive: -0.0728
114 | CGAGAGTA | inactive: 0.0274
115 | CGACAGTC | inactive: -0.0327
116 | AGTATAAG | inactive: 0.0772
117 | CCAGAGAG | inactive: -0.172
118 | CGCTGGCC | inactive: -0.289
119 | GTAGCCAA | inactive: 0.00468
120 | AATAGGAA | inactive: 0.0557

Row | Sequence | PBM E-score
121 | CCGCTATA | inactive: -0.0672
122 | TGCCGAAA | inactive: -0.0384
123 | AATCACCG | inactive: 0.0868
124 | AGAGGTTA | inactive: -0.0109
125 | ACGTGGGA | inactive: -0.0931
126 | GTACTCAA | inactive: 0.0872
127 | AATTCGAT | inactive: 0.0966
128 | AGGCTATC | inactive: -0.0452
129 | CCAGACGG | inactive: -0.238
130 | ACAACTCA | inactive: 0.227
131 | ATTGGAGA | inactive: -0.114
132 | AATTGGAA | inactive: 0.0631
133 | CGGTGCGA | inactive: -0.14
134 | CGATGCCC | inactive: -0.137
135 | AACAGGGT | inactive: 0.0716
136 | CCCCTGCC | inactive: -0.265
137 | ATGGATAG | inactive: -0.0669
138 | AGTTGCGC | inactive: -0.06
139 | ATAGACAA | inactive: 0.275
140 | CACGAGTA | inactive: 0.101
141 | AACTACTG | inactive: 0.096
